The full ranking holds about 110,000 compounds; the median of “z-score” is about -0.1, and the highest 2% start at about 2. This is one part of the list. Active and inactive are the calls of the source.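 Rule for the calls: active = z-score in the third read window above 3 or below -3; inactive = the rest.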

Data on 111 compounds can be found in PubChem BioAssay AID488969 (Vanderbilt High Throughput Screening Facility, 2010).

This test addresses Metabotropic glutamate receptor 8 (Rattus norvegicus) (UniProt P70579). Kind of test: rat mGluR8 modulators via GIRK flux, primary screen, cell-based, thallium flux, HTS (AID 488969). To be noted: HEK293 rat mGluR8, GIRK (G protein-gated inwardly rectifying potassium channel) thallium flux, FluoZin2; at 10 µM; stronger effect = higher value; submaximal glutamate (EC20) added with thallium.
Chain of UniProt P70579 (P70579 whole entry, looked up): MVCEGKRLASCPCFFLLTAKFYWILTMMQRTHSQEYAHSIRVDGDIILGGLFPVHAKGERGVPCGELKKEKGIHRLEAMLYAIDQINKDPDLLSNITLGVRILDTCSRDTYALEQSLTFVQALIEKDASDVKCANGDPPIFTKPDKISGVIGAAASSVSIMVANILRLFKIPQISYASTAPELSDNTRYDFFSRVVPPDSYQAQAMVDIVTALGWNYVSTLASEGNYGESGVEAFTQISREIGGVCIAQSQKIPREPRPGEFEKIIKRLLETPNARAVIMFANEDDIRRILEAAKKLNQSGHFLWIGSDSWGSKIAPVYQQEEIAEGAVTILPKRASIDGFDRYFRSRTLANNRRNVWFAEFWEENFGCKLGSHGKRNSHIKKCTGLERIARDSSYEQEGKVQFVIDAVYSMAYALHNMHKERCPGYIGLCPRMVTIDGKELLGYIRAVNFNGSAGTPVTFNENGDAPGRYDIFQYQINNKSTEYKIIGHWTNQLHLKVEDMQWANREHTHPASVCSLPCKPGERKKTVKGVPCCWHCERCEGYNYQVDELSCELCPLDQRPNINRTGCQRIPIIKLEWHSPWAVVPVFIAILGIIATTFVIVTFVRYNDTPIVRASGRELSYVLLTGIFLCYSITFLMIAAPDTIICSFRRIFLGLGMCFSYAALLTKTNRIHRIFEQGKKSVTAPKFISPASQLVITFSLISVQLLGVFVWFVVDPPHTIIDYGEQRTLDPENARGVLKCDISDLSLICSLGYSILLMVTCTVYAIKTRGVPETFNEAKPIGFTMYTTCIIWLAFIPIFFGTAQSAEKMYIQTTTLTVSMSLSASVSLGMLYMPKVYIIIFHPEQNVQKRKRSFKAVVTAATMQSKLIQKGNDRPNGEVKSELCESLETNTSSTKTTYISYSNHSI
With `CCOc1cc(C2C3=C(CCCC3=O)N(CCC(=O)O)C3=C2C(=O)CCC3)ccc1OS(=O)(=O)c1ccc(C)cc1`, the z-score was 0.309.

`O=C(CSc1nccc(=O)[nH]1)c1ccccc1Br` displayed a z-score of -0.161.

In the case of `CCOC(=O)c1c(-c2ccccc2)nc2c(C)cccn12`, the z-score is -0.595.

In turn, `CCc1cc(-c2n[nH]c(=S)n2CC)cs1` showed a z-score of -0.194.

In the case of `COc1ccc(C2C3=C(CCCC3=O)Nc3nc4ccccc4n32)cc1OC` (stereo unspecified), the z-score was 0.173.

For `COc1cc2[nH]cc(C(=O)NCc3cccs3)c(=O)c2cc1OC`, the z-score is -0.0461.

In the case of `CCOC(=O)N1CCN(C(=O)CN(Cc2ccc(Cl)cc2)S(=O)(=O)c2ccc(C)cc2)CC1`, the z-score was -0.153.

Regarding `COC(=O)c1ccc(CN2C(=O)NC3(CCCc4ccccc43)C2=O)o1` (stereo unspecified), the z-score was 0.00631.

`O=c1cc(C(F)(F)F)nc(-n2[nH]c3c(c2=O)CCCC3)[nH]1` displayed a z-score of -1.1.

In the case of `O=c1ccccn1Cc1c(Cl)cccc1Cl`, the z-score was -0.055.

Compound `Cc1ccc(SCc2nc(N)nc(Nc3ccccc3C)n2)cc1C` displayed a z-score of 0.0403.

In turn, `Nc1nc(SCC(=O)N2CCCc3ccccc32)[nH]c(=O)c1-c1ccccc1` returned a z-score of -0.51.

Regarding `COc1ccc(C(=O)Nn2c(SCC(=O)NC3CCCCC3)nc3ccccc3c2=O)cc1`, the z-score was -0.335.

Regarding `CC/C(=N/NS(=O)(=O)c1ccc(Cl)cc1)c1ccc(O)cc1`, the z-score is -0.202.

Compound `COC(=O)C1=C(C)Nc2nnnn2C1c1cccs1` (stereo unspecified) gave a z-score of -0.544.

Take `Cc1ccc(SC(C)C(=O)Nc2cccnc2)cc1` (stereo unspecified): the z-score is -0.696.

In turn, `O=C(/C=C/c1ccccc1)NC(NC(=S)Nc1ccc(Cl)cc1Cl)C(Cl)(Cl)Cl` (stereo unspecified) yielded a z-score of 0.717.

`C=CCSC1=C(C#N)C(c2cccc(OC)c2)CC(=O)N1` (stereo unspecified) showed a z-score of -0.177.

`CS(=O)(=O)Nc1ccc(S(=O)(=O)Nc2nccs2)cc1` registered a z-score of 0.21.

For `O=C1c2ccccc2C(=O)N1CCc1ccccn1`, the z-score turned out to be 0.415.

On to `O=c1ccnc(SCn2nnc3ccccc3c2=O)[nH]1`, for which the z-score is -0.192.

The compound `COc1ccc(C(C)(C)C)cc1NC(=O)Nc1ccc2c(c1)OCO2` had a z-score of -0.106.

The compound `COc1ccc(NS(=O)(=O)c2cccc(NC(=O)c3ccc(S(=O)(=O)N4CCCCCC4)cc3)c2)cc1` came in with a z-score of -1.3.

On to `COc1cc(O)oc1C=Nc1ccc(Oc2ccccc2)cc1`, for which the z-score stood at 0.11.

`O=C(c1ccccc1)c1ccc(OCCn2cnc3ccccc3c2=O)cc1` came in with a z-score of -1.13.

In the case of `CC(C)(C)NC(=O)C(c1ccncc1)N(C(=O)c1csnn1)c1ccccc1` (stereo unspecified), the z-score was active: 6.21.

In turn, `CCC/C(O)=C1\C(=O)CC(c2ccccc2)CC1=NC` (stereo unspecified) returned a z-score of -0.23.

As to `COc1ccc(-c2noc(CSc3ccc(C)cc3)n2)cc1`, the z-score was -0.756.

For the compound `O=C(CSCC(=O)N1CCN(c2ccccc2)CC1)Nc1nc(-c2ccc(Cl)s2)cs1`, the z-score is 0.16.

`N#CNC1=NCN(Cc2ccccc2)CN1`: the z-score amounted to 0.381.

In turn, `CN1CCC2(CC1)NC(=O)NC2=O` gave a z-score of 0.434.

`Cc1cc2cc(C)c3nnc(SCC(=O)N4CCCc5ccccc54)n3c2cc1C` came in with a z-score of -0.363.

`C(=C\c1ccccc1)/C=N/Nc1nncc(-c2ccccc2)n1` registered a z-score of -0.159.

`Cc1cc(NC(=O)COc2cccc3cccnc23)no1` came in with a z-score of 0.0409.

`CC(=O)n1c2ccccc2c2nc(NC(C)C)sc21`: the z-score was -0.00924.

`COCC(C)NCC(=O)NC(C)CCc1ccccc1` (stereo unspecified) displayed a z-score of -0.158.

The compound `COc1ccc(C2CC(c3ccccc3)=NN2C(=O)COC(=O)c2ccc(Cl)nc2)cc1` (stereo unspecified) registered a z-score of -0.13.

As to `CCOc1ccccc1NC(=O)C1C2C=CC(O2)C1C(=O)O` (stereo unspecified), the z-score came out at 0.111.

`COC(=O)C1CSC(C(=O)OC)N1C(=O)Nc1ccc(Cl)cc1` (stereo unspecified) showed a z-score of -0.0983.

The compound `c1ccc(-c2nnc(SCc3nnc(-c4cccs4)o3)o2)cc1` displayed a z-score of 0.0584.

With `Cc1ncc(CSc2nnnn2-c2ccccc2)c(N)n1`, the z-score is -0.102.

With `Cc1ccc(-c2csc3ncnc(-n4nc(C)cc4N)c23)cc1`, the z-score was determined as 0.274.

On to `CN(C)/C=C/c1c(C#N)c(=O)ncn1Cc1ccccc1`, for which the z-score was -0.0983.

For the compound `COc1ccc(OC)c(C(=O)CN2C(=O)NC(C)(c3ccccc3)C2=O)c1` (stereo unspecified), the z-score is -0.0909.

The compound `Cc1ccc(NC(=O)CCC(=O)NNC(=O)COc2cccc3ccccc23)c(C)c1` yielded a z-score of -0.075.

`CC(=O)c1ccc(-c2nc3ccccc3n2C)o1` displayed a z-score of 0.227.

Take `CCc1ccc(Nc2ncc3c(n2)CC(c2ccco2)CC3=O)cc1` (stereo unspecified): the z-score came out at 0.0155.

In turn, `O=C1CC(SCCO)C(=O)N1c1ccccc1` (stereo unspecified) came in with a z-score of -0.172.

Regarding `CCSc1nc(-c2ccc(OC)cc2)n(-c2nc3ccccc3s2)n1`, the z-score came out at 0.0304.

Turning to `CCOC(=O)c1nnn(-c2nonc2N)c1COc1c(C=O)cccc1OC`, the z-score is -0.306.

As to `CC(NC(=O)c1ccnc(C(C)(C)C)c1)c1ccccc1` (stereo unspecified), the z-score amounted to 0.264.

On to `CCC(O)CNc1nc(-n2nc(C)cc2C)nc2sc3c(c12)CC(C)(C)OC3` (stereo unspecified), for which the z-score is -0.647.

Consider `O=C1CCCc2c1nc(-c1cccc(Cl)c1)n2O`, for which the z-score is 0.253.

Turning to `COc1ccc(/C=N/Nc2nc3ccccc3o2)cc1O`, the z-score was -0.22.

The compound `Cc1ccc(C(=O)C2C(c3cccs3)NC(=O)NC2(O)C(F)(F)F)cc1` (stereo unspecified) registered a z-score of 2.58.

Turning to `COCCCNC(=O)CN(C1CCCCC1)S(=O)(=O)c1ccc(C)cc1`, the z-score is -0.241.

Compound `COC(=O)COc1ccc(S(=O)(=O)NCC2CCCO2)cc1Cl` (stereo unspecified) came in with a z-score of 0.0397.

`COC(=O)C1=C(C)NC(=O)/C1=C\c1cc(C)n(-c2ccccc2C)c1C`: the z-score is -0.534.

In turn, `O=C1NC(c2ccccc2)=C(c2nc3ccccc3s2)C(c2ccc(O)cc2)N1` (stereo unspecified) showed a z-score of -0.302.

As to `O=C(Cn1cc(C(=O)C2CC2)c2ccccc21)NCC1CCCO1` (stereo unspecified), the z-score turned out to be 0.00737.

Compound `CC1CCCCN1S(=O)(=O)c1ccc2c(c1)CCN2C(=O)CCC(=O)O` (stereo unspecified) had a z-score of -0.0502.

For `COc1ccc(N2C(=O)C3CCCN3C2c2ccccc2Cl)cc1` (stereo unspecified), the z-score is 0.523.

With `O=C(CNC(=O)C1CCCCC1)Nc1cc(Cl)cc(Cl)c1`, the z-score was -0.0705.

For `Cc1ccc(Nc2nnc(SCC(=O)NC3CCCc4ccccc43)s2)cc1` (stereo unspecified), the z-score is -0.0123.

Turning to `CCOC(=O)N1CCN(c2cc3[nH]c(=S)[nH]c3cc2F)CC1`, the z-score is -0.482.

In turn, `CCOC(=O)c1[nH]c(C)c(C(=O)NC2CCCC2)c1C` displayed a z-score of -0.06.

`COc1ccc(S(=O)(=O)N(CC(=O)NC2CC2)C2CCCCC2)cc1Cl` gave a z-score of 0.306.

On to `COc1cccc(C(=O)N2CCN(Cc3ccccc3C(F)(F)F)CC2)c1`, for which the z-score is -0.679.

In turn, `CCC1=NN(C(=O)C(=O)Nc2ccc(OC)cc2)C(O)(C(F)(F)F)C1` (stereo unspecified) registered a z-score of 0.332.

In turn, `CCCn1c(C(Cc2ccccc2)NC(=O)COC)nc2ccccc21` (stereo unspecified) came in with a z-score of 1.28.

In turn, `O=C(OC(C(=O)Nc1ccc(Cl)cc1C(F)(F)F)c1ccccc1)C1=COCCO1` (stereo unspecified) registered a z-score of -0.376.

As to `O=C(NCc1ccc2c(c1)OCO2)c1cc2ccccc2oc1=O`, the z-score came to 0.0584.

Take `O=C(Cc1ccccc1)n1nc(-c2ccco2)nc1SCc1ccccc1`: the z-score was -0.336.

On to `CCCc1nnc(NC(=O)CCC(=O)N2CCN(C3c4ccccc4-c4ccccc43)CC2)s1`, for which the z-score was -0.25.

In the case of `Cc1ccc(S(=O)(=O)N2Cc3ccccc3CC2C(=O)Nn2cnnc2)cc1` (stereo unspecified), the z-score was -0.114.

Compound `CCC(CC)C(=O)Nc1cccc(C(=O)Nc2ccc(S(=O)(=O)Nc3ccc(C)cc3)cc2)c1` came in with a z-score of -0.0821.

As for `CC1CCN(S(=O)(=O)c2ccc(F)c(C(=O)O)c2)CC1`, the z-score is 0.0267.

`O=C(Nc1cccc(F)c1)c1ccc(S(=O)(=O)NCC2CCCO2)cc1` (stereo unspecified) yielded a z-score of 0.85.

`COc1cc2c(cc1NC(=S)Nc1cccc(C(F)(F)F)c1)oc1ccccc12`: the z-score was found to be 0.167.

For the compound `COc1cccc(C(c2nnnn2Cc2ccccc2)N2CCN(C(=O)c3ccco3)CC2)c1OC` (stereo unspecified), the z-score was -0.14.

With `Cc1ccc(NC(=O)CS(=O)CC(=O)NCCCN(C)c2ccccc2)cc1` (stereo unspecified), the z-score is 0.0777.

The compound `CC(C)Oc1ccc(C(=O)NC2(C(F)(F)F)N=C3SCCN3C2=O)cc1` (stereo unspecified) displayed a z-score of 0.873.

For the compound `COc1cccc(-c2nc(NCCN3CCOCC3)c3ccccc3n2)c1O`, the z-score was -0.217.

`Cc1cc(C)c(S(=O)(=O)Nc2c(C)[nH]c(=O)[nH]c2=O)c(C)c1` gave a z-score of -0.173.

In turn, `COC(=O)c1ccc(S(=O)(=O)N2C3CCC2CC(NC(=O)C2CC2)C3)cc1` (stereo unspecified) yielded a z-score of 0.255.

The compound `Cc1ccc(NC(=O)c2ccc(OC(=O)COc3ccc(Cl)c(C)c3)cc2)cc1` yielded a z-score of -0.0429.

`CCOC(=O)c1cccc(NC(=O)CNS(=O)(=O)c2cccs2)c1` registered a z-score of -0.433.

The compound `O=C(O)c1cc([N+](=O)[O-])ccc1N1CCCCC1` returned a z-score of -0.123.

Compound `Cc1ccc(-c2cc(C(=O)N/N=C/c3c(C)nn(C)c3C)c3ccccc3n2)c(C)c1` yielded a z-score of -1.46.

Regarding `O=C(NC(=S)NCC1CCCO1)c1ccc(Cl)cc1Cl` (stereo unspecified), the z-score is -0.218.

`COc1ccc(-c2csc(Nc3ccc(S(N)(=O)=O)cc3)n2)cc1`: the z-score was -0.213.

For `COc1ccc2c(c1OC)C(=O)OC2Nc1ncc(Br)cc1Br` (stereo unspecified), the z-score was determined as 0.257.

The compound `COc1cc(CC(=O)NCc2ccc3c(c2)OCO3)cc(OC)c1OC` showed a z-score of -0.0634.

`O=C(Cc1ccc(Cl)cc1)NN1C(=O)c2ccccc2C1=O` registered a z-score of -1.37.

`COc1cccc(C(=O)NCCC2=CCCCC2)c1OC` displayed a z-score of 0.291.

The compound `CCN1CCN(C(=O)c2ccccc2N(C)S(=O)(=O)c2ccc(C)cc2)CC1` had a z-score of 0.202.

As for `C=CCN(CC=C)Cc1ccc(C(=O)OC)o1`, the z-score was -0.396.

For `Cc1ccc(CNC(=O)COC(=O)CSc2cc(C)c(Br)cc2C)cc1`, the z-score was 0.22.

The compound `COc1cccc(C(=O)Nc2ccc(NC(=O)c3ccco3)cn2)c1` came in with a z-score of -0.787.

Consider `CCOC(=O)c1c(C)nc(-c2ccccc2)nc1N`, for which the z-score was -0.442.

The compound `O=C(CSc1ncn[nH]1)NN(c1ccccc1)c1ccccc1` showed a z-score of 0.138.

For `CCN1N=C(c2ccccc2)Cn2c1nc1ccccc12`, the z-score is -0.288.

Compound `COc1cc(S(=O)(=O)N(C)C)ccc1Br` displayed a z-score of -0.2.

`CN(c1cccc(NC(=O)CN2C(=O)c3ccccc3S2(=O)=O)c1)S(C)(=O)=O`: the z-score is 0.157.

`COc1ccc(NC(=O)C(=O)NCCN2CCN(C(=O)c3cccs3)CC2)cc1` displayed a z-score of 0.167.

In turn, `COCC(=O)N(Cc1cc2cc(OC)ccc2[nH]c1=O)c1ccc(C)cc1` displayed a z-score of -0.128.

In turn, `COc1cc(C(=O)OC(C)C(=O)N2CCc3ccccc3C2)ccc1OCC(=O)N1CCOCC1` (stereo unspecified) registered a z-score of -0.0641.

In turn, `COc1cc(CCC(=O)OCc2nnc(-c3ccccc3)o2)cc(OC)c1OC` gave a z-score of -0.336.

Compound `COC(=O)Nc1ccc(S(=O)(=O)N2CCN(CCN3C(=O)C4C5C=CC(C5)C4C3=O)CC2)cc1` (stereo unspecified) had a z-score of 0.0738.

The compound `CC1(C)CC(=O)C=C(NCCN2CCNCC2)C1` had a z-score of 0.258.

As for `COc1ccc(NC(=O)CN(C)S(=O)(=O)c2ccccc2)cc1`, the z-score is -0.772.
